# In PubChem BioAssay AID1671193 (National Center for Advancing Translational Sciences (NCATS), 2021):
# “And” between values parts separate entries of the source, which are not always exact repeats. Equal entries are not always repeated. Among all 150,000 compounds or so, about 180 (0.12%) were called active. The inconclusive results got no clear call from the source; some entries with a clear call stand among them for comparison. The call rests on the fitted dose curve; in most records, active means well fitted cell-killing curve with a large enough effect; inconclusive means small, poorly fitted or top-dose-only effect, or effect the other way; inactive means flat fitted curve, though single readings scatter. A potency beside an inconclusive call is a rough fit, not a confirmed value.
# Assay: GF-AFC viability counterscreen for inhibitors of alpha-synuclein gene (SNCA) expression; further: nearly all actives have a fitted effect of over 30% in size;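 on activity change, negative = cytotoxicity: 0% = DMSO-treated cells and -100% = medium-only wells without cells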
# Details: HEK-293-SNCA-luc viability, GF-AFC fluorescence, 24 h; activity change, negative = cytotoxicity: at 57.1 µM (top of the series) unless noted
# How it was run: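 HEK-293-SNCA-luc cells (1500/well) plated 24 h, then exposed 24 h to a dilution series; GF-AFC added 30 min at 37C, fluorescence 405/540 nm; normalised to medium-only and DMSO wells, Hill fit.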
# Potency means the concentration at half of the fitted maximal effect; tags describe the fitted curve by direction and shape.
Compound,Potency,"activity change, negative = cytotoxicity"
CCCN(CCC)C(=O)Cn1c(=O)n(-c2ccc(OC)cc2OC)c(=O)c2c3c(sc21)CCC3,"inconclusive: 3.16 µM [cytotoxic, partial curve, poor fit]",–
CN(C)C(=O)c1cccnc1OC1CCN(C(=O)c2cccc(Br)c2)C1 (stereo not drawn),"inconclusive: 1 µM [cytotoxic, full curve, poor fit]",–
Cc1ccc2nc3c(cc(C#N)c(=O)n3-c3nnc(SCc4ccc(F)cc4)s3)c(=O)n2c1,"inconclusive: 1 µM [rising, full curve]",–
O=C(NCc1ccccc1)C1CCCN1Cc1ccc(-c2cncnc2)cc1 (stereo not drawn),–,inactive: -4.78%
COc1cc(-c2nc(CN3CCCC(CN)C3)c(C)o2)cc2c1OCO2 (stereo not drawn),–,inactive: -7.35%
CCOC(=O)c1cc2c(=O)n3ccccc3nc2n(Cc2ccco2)c1=NC(=O)c1ccc(C(C)(C)C)cc1,"inconclusive: 4.47 µM [rising, partial curve, poor fit]",–
CCc1nc2c(c(-c3ccc(Cl)cc3)n1)CCN(C(=O)c1ccc3c(c1)OCO3)CC2,–,inactive: -11.5%
CCc1cc(=O)n(CC(=O)N2CCN(c3ccc(F)cc3)CC2)c(N2CCOCC2)n1,–,inactive: -13.4%
COc1ccc(-c2cc(N3CCCC(NC(=O)c4cccc(Cl)c4)C3)n[nH]2)cc1 (stereo not drawn),"inconclusive: 10 µM [cytotoxic, partial curve]",–
Cc1ncc(Cl)c(C(=O)N2CCCn3nc(CO)cc3C2)n1,–,inactive: 4.37%
CCC(Sc1nc2nccnc2c(=O)n1Cc1ccccc1Cl)C(=O)NC1CCCCC1 (stereo not drawn),"inconclusive: 10 µM [cytotoxic, partial curve, poor fit]",–
CNC(=O)[C@@H]1C[C@H](Oc2ccccc2)CN1C(=O)CCc1ccc(OC)cc1,"inconclusive: 35.5 µM [cytotoxic, single point]",–
O=c1c(-c2ccc(Cl)cc2)nc2cnc(N3CCNCC3)nc2n1Cc1ccc(F)cc1,"inconclusive: 39.8 µM [rising, single point]",–
CN(C(=O)CSc1nc2ccc(NC(=O)c3cccc(F)c3)cc2s1)c1ccccc1,"inconclusive: 25.1 µM [cytotoxic, single point]",–
O=C1NC2(CCCN(C(=O)c3ccc(F)cc3)C2)Oc2ccccc21 (stereo not drawn),–,inactive: -6.98% [at 87.6 µM]
COc1ncnc(NS(=O)(=O)c2ccc(N)cc2)c1OC,"inconclusive: 3.04 µM [cytotoxic, full curve]",–
COc1ccc(Cn2c(C(=O)O)c(CNCc3ccc(OC)cc3OC)c3ccc(C)cc32)cc1,"inconclusive: 7.08 µM [cytotoxic, single point]",–
CC(C)NC(=O)N1CCN(c2nccc(Nc3ccccc3Cl)n2)CC1,–,inactive: 13.5%
O=c1n(-c2ccncc2)nc2n1CCN(Cc1ccc(F)cc1)C2,–,inactive: -8.59% [at 87.6 µM]
N#CCCn1c(=O)c(-c2cccs2)nc2cnc(N3CCNCC3)nc21,"inconclusive: 3.16 µM [rising, partial curve, poor fit]",–
NC(=O)Cc1c[nH]c2ncc(-c3cccc(C(F)(F)F)c3)cc12,–,inactive: 4.21% [at 87.6 µM]

Compound,Potency,"activity change, negative = cytotoxicity"
CCn1cc(-c2ccc(Cl)cc2)cc1C(=O)NCCN1CCOCC1,"inconclusive: 22.4 µM [rising, partial curve, poor fit]",–
CN(C)c1ccc(C(=O)N2CCC(n3cc(-c4nc(-c5ccccc5)no4)nn3)C2)cc1 (stereo not drawn),–,inactive: 1.57%
COCCNC(=O)[C@H]1C[C@H](Oc2ccccc2)CN1Cc1ccc2[nH]ccc2c1,–,inactive: -16.7%
O=C(Nc1ccc(Cl)cc1)c1cnn2c1NC(c1ccccc1)=CC2c1ccccc1 (stereo not drawn),"inconclusive: 39.8 µM [rising, single point]",–
O=C(NCCc1ccncc1)C1c2ccccc2C(=O)N(Cc2ccccc2)C12CCCC2 (stereo not drawn),"inconclusive: 11.2 µM [cytotoxic, partial curve, poor fit]",–
CC(=O)O[C@H]1C(=O)[C@@]2(C)C([C@H](OC(=O)c3ccccc3)[C@]3(O)C[C@H](OC(=O)[C@H](O)[C@@H](NC(=O)c4ccccc4)c4ccccc4)C(C)=C1C3(C)C)[C@]1(OC(C)=O)CO[C@@H]1C[C@@H]2O (stereo partly drawn),"inconclusive: 17.8 µM [cytotoxic, partial curve, poor fit]",–
N#CCCn1c(=O)c(CCc2ccccc2)nc2cnc(OCc3ccccc3)nc21,"inconclusive: 15.8 µM [cytotoxic, single point]",–
COCCNC(=O)[C@@H]1CCCN1C(=O)c1cccc(-c2ccccc2OC)c1,–,inactive: 7.34% [at 12.5 µM]
Cn1c(=O)n(-c2ccc(C(C)(C)C#N)cc2)c2c3cc(-c4cnc5ccccc5c4)ccc3ncc21,"inconclusive: 377 nM [cytotoxic, full curve] and inconclusive: 96.1 nM [cytotoxic, full curve]",–
CCc1nc2cc(N3CCC(C(=O)NCc4cccc(F)c4)CC3)cnc2nc1CC,"inconclusive: 5.01 µM [rising, full curve]",–
COc1cccc(N2CCN(C(=O)[C@H]3CCC[C@H]3NC(=O)c3ccc(OC)nc3)CC2)c1,"inconclusive: 17.8 µM [cytotoxic, partial curve, poor fit]",–
COc1ccc(C(=O)NC2CCN(c3cn[nH]c(=O)c3)CC2)c(OC)n1,"inconclusive: 8.91 µM [cytotoxic, partial curve, poor fit]",–
COc1ccc(Nc2c3c(nc4ccc(NC(=O)/C=C/c5cc(OC)c(OC)c(OC)c5)cc24)CCCC3)cc1OC,"inconclusive: 39.8 µM [cytotoxic, single point]",–
COc1cccc(NC(=O)O[C@@H]2CO[C@H]3[C@@H]2OC[C@@H]3Nc2nccc(-c3cccc(F)c3)n2)c1,–,inactive: -17%
COCCNC(=O)C1(C)CN(Cc2ccccc2)Cc2ccc(N3CCOCC3)nc21 (stereo not drawn),–,inactive: -23.5% [at 87.6 µM]
Cc1ccccc1Cn1c(=O)n(Cc2ccc3c(c2)OCO3)c(=O)c2oc3ccccc3c21,–,inactive: -2.25%
O=C(Cc1c[nH]c2ncc(-c3ccccc3)cc12)N1CCCC1,–,inactive: -19.3% [at 87.6 µM]
O=C(Cc1cccc(Cl)c1)N1CCc2nc(C3CC3)nc(-c3ccc(Cl)cc3)c2C1,"inconclusive: 39.8 µM [cytotoxic, single point]",–
O=C(CC1N=C2c3ccccc3N=C(SCc3ccccc3F)N2C1=O)NCCc1ccccc1 (stereo not drawn),"inconclusive: 31.6 µM [cytotoxic, single point]",–
CC(C)CN1CC[C@H](c2nc3ccccc3n2C)C1,–,inactive: -12.3% [at 87.6 µM]
COc1cc(-c2onc(C)c2C(=O)NC2Cc3ccccc3C2)cc(OC)c1OC,–,inactive: -4.58%

Compound,Potency,"activity change, negative = cytotoxicity"
CCOC(=O)c1ccc(CNC(=O)N2CCC[C@H](n3c(=O)n(C)c4cccnc43)C2)cc1,–,inactive: 7.28%
O=C(NC1CC1)[C@@H]1CN(Cc2ccncc2F)C[C@H]1CO,"inconclusive: 12.6 µM [cytotoxic, partial curve]",–
COc1ccc2c(c1)OCC(CNC(=O)c1cnn3ccccc13)C2 (stereo not drawn),–,inactive: -3.29%
COc1cc(NC(=O)CN2C(=O)C(c3ccc(C)cc3)=NC23CCCCC3)cc(OC)c1,"inconclusive: 39.8 µM [cytotoxic, partial curve, poor fit]",–
O=C(c1ccccc1Cl)N1CCc2nc(C3CC3)nc(-c3ccc(Cl)cc3)c2C1,–,inactive: -0.328%
CCc1ccc(CNC(=O)c2ccc3nc(SCc4ccc(F)cc4)n(C)c3c2)cc1,"inconclusive: 2.51 µM [rising, partial curve, poor fit]",–
COc1ccc(-c2cnc3[nH]cc(CC(=O)Nc4cccc(F)c4)c3c2)cc1,"inconclusive: 28.2 µM [cytotoxic, partial curve, poor fit]",–
CCOc1ccc(C2Cn3nnc(-c4nc(-c5ccccc5Br)no4)c3CO2)cc1 (stereo not drawn),–,inactive: 0.927%
COc1cccc(CNC(=O)Nc2cccc(-c3ccc(N4CCOCC4)nn3)c2)c1,–,inactive: -2.96%
O=C(NC1CCCCC1)N1Cc2[nH]cnc2C[C@H]1c1nc(-c2ccc(F)c(Cl)c2)no1,"inconclusive: 39.8 µM [cytotoxic, single point]",–
COCc1ccc2c(c1)c(OC(C)(C)C(=O)NCC[S+](C)(=O)[O-])nn2Cc1cccnc1,–,inactive: 4.77%
COc1ccc(-c2cc(N3CCC(NC(=O)c4ccccc4C)C3)n[nH]2)cc1 (stereo not drawn),"inconclusive: 2.24 µM [rising, full curve, poor fit]",–
CCc1ccccc1C(=O)N[C@@H]1c2ccccc2C2(CCNCC2)[C@H]1OC,"inconclusive: 11.2 µM [cytotoxic, partial curve, poor fit]",–
COc1ccc(CCNC(=O)Cn2c(=O)n(-c3ccccc3)c(=O)c3c(C)c(C)sc32)cc1OC,"inconclusive: 1 µM [cytotoxic, full curve]",–
COc1cc(OC)c(-c2cc(C(=O)NCc3ccc(F)cc3)c3c(-c4ccccc4)[nH]nc3n2)cc1OC,"inconclusive: 31.6 µM [cytotoxic, single point]",–
O=C(O)COc1ccc(-c2nccc3c2C(=O)N(Cc2cccc(C(F)(F)F)c2)CC(CNC(=O)C2CCOCC2)O3)cc1 (stereo not drawn),"inconclusive: 28.2 µM [cytotoxic, partial curve, poor fit]",–
CCOc1ccccc1NC(=O)Cn1cccc1-c1nc(-c2ccc(OC)c(F)c2)no1,"inconclusive: 28.2 µM [cytotoxic, single point]",–
O=C(NCCOc1ccccc1)c1cnc2n1CCN(Cc1c[nH]c3ccccc13)CC2,–,inactive: -11.4% [at 87.6 µM]
CN(Cc1cn(-c2ccccc2)nn1)Cc1noc2c1CCCC2,"inconclusive: 2.82 µM [cytotoxic, full curve, poor fit]",–
OCC1CN(Cc2ccc(Br)cc2)CC12CCNCC2 (stereo not drawn),–,inactive: -4.94% [at 12.5 µM]
CCC(C(C)O)n1ncn(-c2ccc(N3CCN(c4ccc(OCC5COC(Cn6cncn6)(c6ccc(F)cc6F)C5)cc4)CC3)cc2)c1=O (stereo not drawn),–,inconclusive: -43.5% [cytotoxic]
